From ChEMBL document CHEMBL1157539, “Thousands of chemical starting points for antimalarial lead identification” (Nature, 2010)
Whole data set: some 13,000 compounds, median “IFI” near 4, cut for the highest 2% near 17. The list shows a part of the results.

Test: GSK_TCMDC: Inhibition Frequency Index (IFI). The number of non-kinase HTS assays where a compound showed > 50 % inhibition, expressed as a percentage of the number of such assays in which the compound was tested (-0 is zero)
Type: functional
COc1ccc(C2(CNCC(O)c3cccc([N+](=O)[O-])c3)CCCCC2)cc1OC (configuration not stated) gave an IFI of 0.73%.
In the case of COc1ccc2nccc([C@@H](O)CN3CCC(NC(=O)[C@@H]4Cc5ccccc5CN4C(=O)OC(C)(C)C)CC3)c2c1, the IFI was -0%.
CCOC(=O)c1ccc(-c2cnc(N)c(-c3nc4cccc(C)c4[nH]3)c2)cc1 gave an IFI of 0.69%.
In the case of CCc1ccc(CN2CCC(NC(=O)c3ccc(-c4ccccc4F)s3)CC2)cc1, the IFI was 10.3%.
Molecule O=C(NCCCN1CCOCC1)c1ccc(-c2cccc(NC(=O)c3ccc(Cl)c(Cl)c3)c2)cc1 has an IFI of 11.6%.
Molecule COc1cc(NC(=O)N2CCc3cc(OC)c(OCCN4CCCCC4)cc32)cc(C(F)(F)F)c1 has an IFI of 1.49%.
In the case of CCN(C1CCCCC1)S(=O)(=O)c1ccc(OC)c(N2CCN(C(=O)C(Cl)(Cl)Cl)CC2)c1, the IFI was 5.83%.
Work on CCCCN(CCCC)CCCN(CCCN(CCCC)CCCC)c1cc(C)nc(Nc2ccc(Cl)cc2)n1 yielded an IFI of 9.38%.
Cc1cc2c(cc1C(F)(F)F)N(C(=O)Nc1ccc(C(=O)NCCN3CCCC3)cc1)CC2 gave an IFI of 2.9%.
With O=C(/C=C/c1ccc(Cl)c(Cl)c1)NCCCCCN1CCC(NS(=O)(=O)c2cc(Cl)cc(Cl)c2)CC1 the IFI was 7.94%.
With Cc1cc(N2CCN(CC3CCN(C)CC3)CC2)nc(Nc2ccc(Br)cc2)n1 the IFI was 5.95%.
For O=S(=O)(NC1=NCCC1)c1cccc(Nc2nc(C(F)(F)F)nc3ccccc23)c1, the IFI was -0%.
With O=C(Nc1cccc(C(F)(F)F)c1)Nc1nc2ccc([N+](=O)[O-])cc2s1 the IFI was 14%.
For Cc1ccc(CCNCC(O)c2cccc(C(F)(F)F)c2)cc1 (configuration not stated), the IFI was 3.62%.
With O=C(N[C@H]1CCN(Cc2ccc(OCCN3CCNCC3)c(Br)c2)C1)c1ccc(Cl)c(Cl)c1 the IFI was 6.9%.
With NC(=O)c1ccc(NCC(=O)Nc2cccc(-c3cccc(-c4nc5cc(C(F)(F)F)ccc5[nH]4)c3)c2)cc1 the IFI was 10.3%.
CCN(CC)CCCC(C)Nc1c(-c2ccc(OC)cc2)cnc2ccccc12 (configuration not stated) gave an IFI of -0%.
ON=C1CCc2cc(-c3nc(-c4ccc(OCCN5CCCCC5)cc4)[nH]c3-c3ccncc3)ccc21 showed an IFI of 6.47%.
For Cc1cc(N2CCCC2)nc(Nc2ccc(NC(=O)c3ccco3)cc2)n1, the IFI was 9.62%.
O=C(NCCc1ccc(Cl)c(Cl)c1)[C@@H]1CCCN1C(=O)c1ccc(O)c(-c2ccc(Cl)c(Cl)c2)c1 gave an IFI of 4.44%.
For NC1CCN(Cc2cccc(-c3cccc(-c4nc5ccccc5[nH]4)c3)c2)C1 (configuration not stated), the IFI was 2.78%.
Molecule Cc1cccc2nc(-c3ccc(-c4ccc(CN5CCCC(N)C5)cc4)cc3)[nH]c12 (configuration not stated) has an IFI of 4.23%.
Work on NC1=NC(CCc2ccccc2)N(c2ccc(Cl)cc2)C(N)=N1 (configuration not stated) yielded an IFI of 2.21%.
In the case of NC1CCCN(Cc2cccc(-c3ccc(-c4nc5cc(F)ccc5[nH]4)cc3)c2)C1 (configuration not stated), the IFI was 4.23%.
In the case of COc1cc(O)c2c(=O)c(OC)c(-c3cccc(Cl)c3OCC(=O)O)oc2c1OC, the IFI was 1.4%.
With c1ccc(CNc2nc(NCCc3c[nH]cn3)nc(N3CCCC4CCCCC43)n2)cc1 (configuration not stated) the IFI was 0.75%.
For O=C(NC1CCCCC1)N(Cc1cccc(-c2ccc(CNC3CCCC3)cc2)c1)C1CCN(Cc2ccccc2)CC1, the IFI was 8.96%.
Molecule Cc1cccc2nc(-c3cccc(-c4cccc(NC(=O)Nc5ccsc5)c4)c3)[nH]c12 has an IFI of 2.02%.
CN1CCN(c2ccnc3ccc(NC(=O)Cc4ccc(Br)c5ccccc45)cc23)CC1 showed an IFI of 1.44%.
Molecule CN(C)C(=O)CCCn1c(CNCCCNc2cc(=O)c3ccccc3[nH]2)cc2c(Cl)cc(Cl)cc21 has an IFI of 3.62%.
With CCN(CC)CCN1C(=O)c2oc3ccc(Cl)cc3c(=O)c2C1c1ccc(SC)cc1 (configuration not stated) the IFI was 2.38%.
O=C(C=Cc1ccc(Cl)c(Cl)c1)NCCCCCN1CCCC(CCCNC(=O)C2CC2c2ccccc2)C1 (configuration not stated) gave an IFI of 3.85%.
In the case of Cn1c(Cc2ccccc2)nnc1Sc1ccc(C#N)c([N+](=O)[O-])c1, the IFI was 0.7%.
Molecule CON=Cc1sc(CNCCCN=c2cc(O)c3ccccc3[nH]2)c(C)c1Br has an IFI of 6.52%.
Molecule Cc1cccc(C=NN=c2cc(C)[nH]c3ccc(F)cc23)n1 has an IFI of 2.22%.
With Cc1cc(-c2nc3ccc(C(=O)NCc4ccccc4)cc3n2C2CCN(C(=O)c3ccc(-c4ccccc4)cc3)CC2)ccn1 the IFI was 1.4%.
In the case of COc1ccc(-c2ccc(NC(=O)c3ccc(Cl)cc3)cc2)cc1CN1CCCN(C)CC1, the IFI was 5.94%.
Work on Cc1ccccc1C1CCN(c2ncc(C(=O)Nc3ccccc3)cc2Cl)CC1 yielded an IFI of 4.08%.
In the case of CN(C)c1nc(NCc2ccccc2)nc(N/N=C/c2cc([N+](=O)[O-])ccc2O)n1, the IFI was 6.16%.
COc1ccc2nccc(N3CCN(CCNCc4ccc5c(n4)NC(=O)CO5)CC3)c2c1 gave an IFI of 3.73%.
Molecule N#Cc1cccc(NC(=O)Nc2ccc(-c3csc(-c4nc5ccccc5[nH]4)c3)cc2)c1 has an IFI of 6.93%.
In the case of Cn1nc(C(F)(F)F)c(-c2ccc(Br)cc2)c1NC(=O)Cc1ccccc1F, the IFI was 0.67%.
Work on CC(=O)Nc1nc(N)c2c(ccc3c2ccn3CC(C)C)n1 yielded an IFI of 2.13%.
CCCc1c(Cl)cc(CNCCCNc2nc3ccncc3[nH]2)cc1Cl showed an IFI of 2.13%.
With CCc1ccc(C2CCN(CCCCNC(=O)c3ccc(-c4ccc(C#N)cc4)cc3)CC2)c(OCCO)c1 the IFI was 4.55%.
CN(C)CCNCc1cccc(-c2cccc(-c3nc4ccccc4[nH]3)c2)c1 showed an IFI of 4.9%.
CCNS(=O)(=O)c1ccc(Oc2ccc([N+](=O)[O-])cc2)cc1 showed an IFI of 1.46%.
With CC(CN(C)C)Oc1ccc2nc(-c3cccc(OCc4ccccc4)c3)[nH]c2c1C#N (configuration not stated) the IFI was 9.09%.
With CS(=O)(=O)Cc1ccc(Nc2nccc(N3CCCc4cc(NC(=O)Nc5cccc(C(F)(F)F)c5)ccc43)n2)cc1 the IFI was 12.3%.
With CC(=O)c1c[nH]c(C(=O)Nc2ccc(-c3cn4ccccc4n3)cc2)c1 the IFI was -0%.
CN1CCc2cc(Br)c(O)cc2C1Cc1ccccc1Cl (configuration not stated) gave an IFI of 4.86%.
N#Cc1ccc(CN2CCC(Oc3ccc(NC(=O)c4cccs4)cc3Cl)C2)cc1 (configuration not stated) gave an IFI of 10.4%.
Molecule Cc1cccc2nc(-c3ccc(-c4ccc(CN5CCN(CCC#N)CC5)cc4)cc3)[nH]c12 has an IFI of 9.59%.
CSCCC(C(=O)O)N1C(=O)c2ccccc2C1=O (configuration not stated) showed an IFI of -0%.
Molecule CN1CCN(c2ccnc3ccc(NC(=O)Nc4ccccc4Br)cc23)CC1 has an IFI of 0.75%.
Molecule CCN(C)c1cc(C(=O)N[C@@H](Cc2ccccc2)[C@H](O)CNC(C)(C)c2cccc(OC)c2)cc(N2CCCC2=O)c1 has an IFI of 3.55%.
With O=C(/C=C/c1ccc(Cl)c(Cl)c1)NCCCCCN1CCC(CCNC(=O)/C=C/c2cc(C(F)(F)F)ccc2F)CC1 the IFI was 8.97%.
